Here are results for two compounds from paper PMC8138772 (The Journal of Biological Chemistry, 2021).

For data set [1] the following is noted: normal mouse serum, within a 4 h incubation at 37 °C; cited from earlier work.
The conditions of data set [2]: normal mouse serum, 0, 2, 4 and 6 h at 37 °C, MALDI-TOF MS, Fig. S1.

`CC(C)C[C@H](NC(=O)[C@H](CC(=O)O)NC(=O)CNC(=O)[C@H](CCCNC(=N)N)NC(=O)[C@H](CC(C)C)NC(=O)[C@H](CC(N)=O)NC(=O)[C@@H]1CCCN1C(=O)[C@@H](NC(=O)[C@H](C)NC(=O)[C@H](CC(N)=O)NC(=O)CCCC[C@@H]1SC[C@@H]2NC(=O)N[C@@H]21)C(C)C)C(=O)N[C@@H](CCC(N)=O)C(=O)N[C@H](C(=O)N[C@@H](CC(C)C)C(=O)N[C@@H](C)C(=O)N[C@@H](CCC(N)=O)C(=O)N[C@@H](CCCCN)C(=O)N[C@H](C(=O)N[C@@H](C)C(=O)N[C@@H](CCCNC(=N)N)C(=O)N[C@H](C(=O)N[C@@H](CCCCN)C(N)=O)[C@@H](C)O)C(C)C)C(C)C` [A20FMDV2]: the “peptide degraded in serum” value in data set [1] was “over 50%”.
On to `CC(C)C[C@@H]1NC(=O)[C@H](CC(=O)O)NC(=O)CNC(=O)[C@H](CCCNC(=N)N)NC(=O)[C@H](CC(C)C)NC(=O)[C@H](CC(N)=O)NC(=O)[C@@H]2CCCN2C(=O)[C@H](C(C)C)NC(=O)[C@H](C)NC(=O)[C@@H](NC(=O)CCCC[C@@H]2SC[C@@H]3NC(=O)N[C@@H]32)CSSC[C@@H](C(=O)N[C@@H](CCCNC(=N)N)C(=O)N[C@H](C(=O)N[C@@H](CCCCN)C(N)=O)[C@@H](C)O)NC(=O)[C@H](C(C)C)NC(=O)[C@H](CCCCN)NC(=O)[C@H](CCC(N)=O)NC(=O)[C@H](C)NC(=O)[C@H](CC(C)C)NC(=O)[C@H](C(C)C)NC(=O)[C@H](CCC(N)=O)NC1=O` [C1C18 S–S], for which the “serum degradation (in words)” value in data set [2] is on record as “faster degradation to the 385 Da smaller product compared with C1C18 DFBP”.
